Measured values taken from PubChem BioAssay (NCI).
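Where inhibition never reached the appropriate level, the endpoint shown equals the highest concentration tested. Otherwise, values were interpolated linearly from a five-concentration, 48-hour dose response in 96-well plates. GI50: concentration for 50% inhibition of growth. TGI denotes the concentration required for complete inhibition of growth.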

test system: NCI-H322M lung; assay: DTP human tumour cell line panel, 48 h

`CC(=O)NC(CCCCNC(=O)N(CCCl)N=O)C(=O)NCc1ccccc1` (stereo not drawn) and `O=C(O)CC(Nc1ccccc1)C(=O)O` (stereo not drawn) cannot be ordered by TGI: over 100 µM for the first, over 100 µM for the second.

`CCOP(=O)(OCC)C1CC(O)CN1OC(=O)C(C)(C)C` (stereo not drawn) and `CC(=O)OC1CC(O)CC2=CCC3C4CCC(C(C)(O)C(O)CC5COC(=O)C5C)C4(C)CCC3C21C` (stereo not drawn) cannot be ordered by TGI: over 100 µM for the first, over 25 µM for the second.

`NNC(=O)c1ccccc1Nc1ccccc1C(=O)NN` and `Nc1ccccc1N/C(=C\C(=O)C(Cl)(Cl)Cl)c1ccccc1` cannot be ordered by TGI: over 100 µM for the first, over 100 µM for the second.

`O=C1OCc2c1cc(F)cc2[N+](=O)[O-]` and `Cc1ccc([N+](=O)[O-])cc1NC(=O)C(=O)Cc1occc(=O)c1O` cannot be ordered by TGI: over 100 µM for the first, over 100 µM for the second.

`COC(=O)c1ccc(N=NN(C)COc2ccc(C#N)cc2)cc1` and `CC1=NN(C(=O)CC(=O)Nc2ccccc2Cl)C(=O)C1N=Nc1ccc(C(=O)O)cc1` (stereo not drawn) cannot be ordered by TGI: over 100 µM for the first, over 100 µM for the second.

Compared with `CC(C)(C)[Si](C)(C)OCCCCC1CC2(S(=O)(=O)C3=CC=C=C=C3)ON1CC2S(=O)(=O)c1ccccc1` (stereo not drawn), `CN1CCC[C@@H]1CCO[C@](C)(c1ccccc1)c1ccc(Cl)cc1` is lower in TGI: over 100 µM for the first, 24.6 µM for the second.

Going from `CCN(CC)CCOc1ccc(/C(=C(\C)Cc2ccc(OC)cc2)c2ccc(OC(=O)NCc3ccccc3)cc2)cc1` to `COc1ccc(CNC2=C(NC(C)=O)C(=O)c3ccccc3C2=O)cc1`, the TGI rises from 14.4 µM to over 50 µM.

First: O=C(O)c1ccc2c(c1Nc1ccccc1)C(=O)c1ccccc1C2=O
Second: O=C1C(=O)c2ccccc2-c2ccccc21
The TGI of the first is higher: over 100 µM for the first, 3.11 µM for the second.

Going from `O=C(Nc1nccs1)c1cc2c(cc1Cl)Sc1nccn1S2(=O)=O` to `Clc1cc(Cl)c(Cl)c(-c2nc(-c3cccnc3)cs2)c1`, the TGI rises from 33.7 µM to over 100 µM.

Going from `Cc1cc(N2CCCCCC2)nc(NC2CCCC(Nc3ccnc4cc(Cl)ccc34)C2)n1` (stereo not drawn) to `NCCNc1nc(N2CCCC2)c2nc(Cl)c(NCc3ccccc3)nc2n1`, the TGI rises from 3.1 µM to 5.94 µM (1.9-fold).

`CC(=O)CCNc1ccc(-c2cc(-c3ccc(N(C)C)cc3)nc3ccc4ccccc4c23)cc1` and `O=S(=O)(O)c1cccc2c(N=Nc3c(O)ccc4ccccc34)cccc12` cannot be ordered by TGI: over 100 µM for the first, over 100 µM for the second.

`CC(C)NCC(O)COC(=O)c1cccs1` (stereo not drawn) and `O=C(CCN1CC2CCC(CC2)C1)c1cccs1` cannot be ordered by TGI: over 100 µM for the first, over 100 µM for the second.

`O=C(Nc1n[nH]c2nc(-c3ccco3)ccc12)C1CC1` and `COC(=O)C1Cc2cccc(C)c2C1` (stereo not drawn) cannot be ordered by TGI: over 25 µM for the first, over 100 µM for the second.

`OC(c1cccnc1)C(F)(F)c1nc2ccccc2o1` (stereo not drawn) and `O=C1c2ccccc2-c2nc3ccc(O)cc3n21` cannot be ordered by TGI: over 100 µM for the first, over 100 µM for the second.

`O=C(C#CP(=O)(O)c1ccccc1)c1ccccc1` and `N#CC(c1ccccc1)N1CCCN(C(C#N)c2ccccc2)C1c1ccccc1O` (stereo not drawn) cannot be ordered by TGI: over 100 µM for the first, over 100 µM for the second.

`Cn1cccc1-c1cc(-c2cccs2)[nH]c(=O)c1C#N` and `O=C1C2=Cc3ccccc3OC2(O)Oc2cc(O)ccc21` (stereo not drawn) cannot be ordered by TGI: over 100 µM for the first, over 100 µM for the second.

`C[C@]12CC[C@@H]3c4ccccc4CC[C@H]3[C@@H]1CC[C@@H]2O` and `C[C@]12CCC(=O)C=C1CC[C@@H]1[C@@H]2[C@@H](O)C[C@@]2(C)[C@H]1CC[C@]2(O)C(=O)CO` cannot be ordered by TGI: over 100 µM for the first, over 100 µM for the second.

`NC(=O)N/N=C(\C(=O)C(=O)Nc1ccc(Cl)c(C(F)(F)F)c1)c1nc2ccc(C(=O)c3ccccc3)cc2[nH]c1=O` and `COC(=O)C(C(=O)C(=O)Nc1ccccc1C(C)=O)c1nc2ccc(Cl)cc2[nH]c1=O` (stereo not drawn) cannot be ordered by TGI: over 100 µM for the first, over 100 µM for the second.

Compared with `COC(=O)C(C)NP(=O)(OCc1ccc(Cn2cnc3c(=O)[nH]c(N)nc32)cc1)Oc1ccccc1` (stereo not drawn), `ClCc1ccc(-c2ccc(Cn3cnc4c(Cl)nc(Cl)nc43)cc2)cc1` is lower in TGI: over 100 µM for the first, 18.7 µM for the second.

First: N[C@H]1CCN(c2c(F)cc3c(=O)c(C(=O)O)cn4c3c2Oc2cc3c(ccc5ccccc53)cc2-4)C1
Second: O=C(O)C(Cc1c[nH]c2ccccc12)N=Cc1nc(-c2ccccc2)oc1O (stereo not drawn)
The TGI of the first is lower: 6.09 µM for the first, over 100 µM for the second.

`Cc1c(C(=O)CC(=O)C(=O)Nc2ccc(Cl)c(Cl)c2)[n+](=O)c2ccccc2n1[O-]` and `COc1ccc(C(c2ccc(C(C)C)cc(=O)c2O)c2ccc3cccnc3c2O)cc1` (stereo not drawn) are within 1.5-fold of each other in TGI: 56.3 µM for the first, 77 µM for the second.

`C[C@@H](CO)OCOCc1ccccc1` and `COC(=O)C1C(O)CCC2CN3CCc4c([nH]c5cccc(OC)c45)C3CC21` (stereo not drawn) cannot be ordered by TGI: over 100 µM for the first, over 100 µM for the second.

First: COc1cc(C#N)cc(OC)c1OCCOCCOc1c(OC)cc(C#N)cc1OC
Second: COc1ccc(/C=C2\CN(Cc3cn(CCCNc4ccnc5cc(Cl)ccc45)nn3)C/C(=C\c3ccc(OC)c(OC)c3)C2=O)cc1OC
The TGI of the first is higher: over 100 µM for the first, 2.74 µM for the second.

`CC1(C)C=C(/C=N/Nc2ccc([N+](=O)[O-])cc2)C(C#N)=C(O)C1(C#N)C#N` and `C=C[C@]1(C)CCC2=C(CCC3C2(C)CCC[C@]3(C)CO)C1` (stereo partly drawn) cannot be ordered by TGI: over 100 µM for the first, over 100 µM for the second.

`Oc1c2cc(Br)cc1CCc1cc(Br)cc(c1O)CC2` showed a TGI of 63.2 µM.

Going from `O=C1OCc2c1cc(F)cc2[N+](=O)[O-]` to `O=C1C(=O)c2ccccc2-c2ccccc21`, the GI50 falls from over 100 µM to 1.68 µM.

First: CCN(CC)CCOc1ccc(/C(=C(\C)Cc2ccc(OC)cc2)c2ccc(OC(=O)NCc3ccccc3)cc2)cc1
Second: COC(=O)C(C)NP(=O)(OCc1ccc(Cn2cnc3c(=O)[nH]c(N)nc32)cc1)Oc1ccccc1 (stereo not drawn)
The GI50 of the first is lower: 3.72 µM for the first, over 100 µM for the second.

Going from `O=C(O)c1ccc2c(c1Nc1ccccc1)C(=O)c1ccccc1C2=O` to `CN1CCC[C@@H]1CCO[C@](C)(c1ccccc1)c1ccc(Cl)cc1`, the GI50 falls from 37 µM to 11.6 µM (3.2-fold).

Compared with `O=C(Nc1nccs1)c1cc2c(cc1Cl)Sc1nccn1S2(=O)=O`, `Clc1cc(Cl)c(Cl)c(-c2nc(-c3cccnc3)cs2)c1` is higher in GI50: 17.5 µM for the first, over 100 µM for the second.

`Cc1cc(N2CCCCCC2)nc(NC2CCCC(Nc3ccnc4cc(Cl)ccc34)C2)n1` (stereo not drawn) and `COc1ccc(/C=C2\CN(Cc3cn(CCCNc4ccnc5cc(Cl)ccc45)nn3)C/C(=C\c3ccc(OC)c(OC)c3)C2=O)cc1OC` are within 1.5-fold of each other in GI50: 1.62 µM for the first, 1.18 µM for the second.

`O=C(Nc1n[nH]c2nc(-c3ccco3)ccc12)C1CC1` and `Cn1cccc1-c1cc(-c2cccs2)[nH]c(=O)c1C#N` cannot be ordered by GI50: over 25 µM for the first, over 100 µM for the second.

First: ClCc1ccc(-c2ccc(Cn3cnc4c(Cl)nc(Cl)nc43)cc2)cc1
Second: COc1cc(C#N)cc(OC)c1OCCOCCOc1c(OC)cc(C#N)cc1OC
The GI50 of the first is lower: 6.2 µM for the first, over 100 µM for the second.
